According to PubChem BioAssay AID360 (National Center for Advancing Translational Sciences (NCATS), 2006):
Hit rate of the full screen: of about 48,000 compounds, about 550 (1.1%) were called active. Roughly 4% stayed inconclusive and do not appear here. Cut-off read from the data, not from the text of the source: active = potency below about 15 µM; inconclusive = mostly about 16 µM to 33 µM; inactive = weaker than that. Some of the results follow.

Target: Lysosomal acid glucosylceramidase (Homo sapiens) (UniProt P04062)
Assay: Glucocerebrosidase;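 note: the screen sought inhibitors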
Details: purified enzyme, resorufin glucoside fluorescence (screen aimed at inhibitors), 20 min
How it was run: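 Compounds titrated against 0.2 nM normal enzyme, 30 uM resorufin beta-D-glucopyranoside substrate, citrate/phosphate buffer with taurocholate and tween-20, pH 5.9. Reaction ran 20 min at room temperature; fluorescence (Ex 548/Em 600) gave AC50.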
Potency is the fitted concentration of half-maximal effect.

UniProt P04062, sequence (P04062 whole entry, looked up): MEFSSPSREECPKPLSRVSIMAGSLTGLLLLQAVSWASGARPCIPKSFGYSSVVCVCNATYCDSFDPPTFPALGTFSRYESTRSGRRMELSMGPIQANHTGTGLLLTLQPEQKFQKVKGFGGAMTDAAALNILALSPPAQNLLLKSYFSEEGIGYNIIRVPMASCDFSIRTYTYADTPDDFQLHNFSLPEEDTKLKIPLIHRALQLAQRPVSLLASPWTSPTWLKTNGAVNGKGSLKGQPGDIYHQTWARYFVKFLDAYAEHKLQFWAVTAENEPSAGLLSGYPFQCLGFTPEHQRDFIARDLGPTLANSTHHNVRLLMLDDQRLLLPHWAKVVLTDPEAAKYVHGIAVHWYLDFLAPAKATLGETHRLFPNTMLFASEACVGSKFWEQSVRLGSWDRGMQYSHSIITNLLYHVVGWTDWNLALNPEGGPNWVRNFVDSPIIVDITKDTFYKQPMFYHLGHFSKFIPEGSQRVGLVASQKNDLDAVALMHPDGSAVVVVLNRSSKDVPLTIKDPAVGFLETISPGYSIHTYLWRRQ

Potency, inactive:
COc1ccc(-c2nnc(SCc3cc(C)cc(C)c3)o2)cc1 > 76.9 µM
CCOc1ccccc1-n1c(SCC(=O)N2CCOCC2)nnc1-c1ccccn1 > 76.9 µM
COc1cccc(NC(=O)Cc2cccs2)c1 > 76.9 µM
CCN1C(=O)c2cccc3c(S(=O)(=O)Nc4ccc(OC)cc4OC)ccc1c23 > 76.9 µM
CN(Cc1nc2ccccc2c(=O)[nH]1)CC(O)COCc1ccco1 (stereo not given) > 76.9 µM
Cc1ccc(N(CC(=O)Nc2ccc(F)cc2)S(=O)(=O)N2CCCC2)cc1 > 76.9 µM
O=C(COC(=O)c1cc(S(=O)(=O)N2CCOCC2)ccc1Cl)Nc1ccc2c(c1)OCO2 > 76.9 µM
O=C(CNS(=O)(=O)c1ccc(Br)s1)N1CCCC1 > 76.9 µM
CC1(C)C(=O)Nc2ccccc2N1C(=O)CN1C(=O)c2ccccc2C1=O > 76.9 µM
CCn1c(=O)cc(NC2=NCC(C)CN2c2cccc(Cl)c2)n(C)c1=O (stereo not given) > 76.9 µM
Cc1cc(C)n(-c2ccc(OCC(=O)O)nn2)n1 > 76.9 µM
Cc1ccc2nc(C3CCN(CC(=O)N4CCCCCC4)CC3)[nH]c2c1 > 76.9 µM
COc1cc2c(cc1OC)C(C(=O)Nc1ccc3c(c1)OCCO3)C1c3ccccc3CCN1C2=O (stereo not given) > 76.9 µM
CC(C)[C@H](NC(=O)C1(c2ccccc2)CCN(C(=O)OC(C)(C)C)CC1)C(=O)O > 76.9 µM
O=C1CCCC/C1=C\Nc1ccccc1C(=O)O > 76.9 µM
CC1CN(c2nc3ccccc3nc2C(C#N)C(=O)NC2CCCCC2)CC(C)O1 (stereo not given) > 76.9 µM
N#CCCn1c2ccccc2c2nc3ccccc3nc21 > 76.9 µM
CCOC(=O)c1ccc(NC(=O)Cn2nnc(-c3ccc(F)cc3)n2)cc1 > 76.9 µM
CCOC(=O)c1cc2nc(Nc3ccc(OC)cc3)sc2s1 > 76.9 µM
CSc1cccc(NC(=O)CSc2ccccc2)c1 > 76.9 µM
COc1ccccc1-c1c(NC(=O)c2ccco2)n(-c2ccccc2)nc(C)c1=O > 76.9 µM
N#C/C(Cn1c[n+](NC(=O)Nc2ccccc2)cn1)=N/O > 76.9 µM
Cc1nc2cc(C(F)(F)F)ccc2n1C1CCN(C(=O)N2CCOCC2)CC1 > 76.9 µM
CCCCNC(=O)CSc1nc2ccccc2c(=O)n1C1CCCC1 > 76.9 µM
COc1cc2nc(N3CCNCC3)nc(N)c2cc1OC > 76.9 µM
CC(C)Sc1nc2c(c(=O)[nH]c(=O)n2C)n1C > 76.9 µM
CCOc1cc2c(cc1OCC)C(c1cc(OC)c(O)c(OC)c1)NCC2 (stereo not given) > 76.9 µM
Cc1cccc(NC(=O)C2CC(O)CN2C(=O)OCc2ccccc2)c1 (stereo not given) > 76.9 µM
Cc1csc(NC(=O)CSc2nncn2C)n1 > 76.9 µM
CCN1CCN(C(c2cccs2)C(C)NC(=O)c2cccnc2)CC1 (stereo not given) > 76.9 µM
O=C(Cn1ccc2ccccc2c1=O)NCCC(=O)N1CCN(c2cccc(C(F)(F)F)c2)CC1 > 76.9 µM
O=C(Nc1c(C(=O)Nc2cccc(F)c2)oc2ccccc12)c1ccc2c(c1)OCO2 > 76.9 µM
COc1ccc(NC(C)=O)cc1NC(=O)CSc1nnc(-c2cccnc2)n1C > 76.9 µM
CCC(=O)c1ccccc1OCCCN1C(=O)NC(C)(C)C1=O > 76.9 µM
Cc1cc(C)c(C(=O)OCCNC(=O)c2cccnc2)cc1C > 76.9 µM
Nc1nonc1-c1noc(CCCCCN2C(=O)c3ccccc3C2=O)n1 > 76.9 µM
CCc1nc2c(n1O)CCc1nonc1-2 > 76.9 µM
O=C(COc1ccccc1)Nc1nc(-c2ccc(S(=O)(=O)N3CCOCC3)cc2)cs1 > 76.9 µM
Cc1cc2n(n1)C(c1ccc(N(C)C)cc1)Nc1ccccc1-2 (stereo not given) > 76.9 µM
Cn1nc(C(=O)NCC2CCCO2)c2ccccc2c1=O (stereo not given) > 76.9 µM
CCN(CC)CCCN1C(=O)C(O)=C(C(=O)c2sc(C)nc2C)C1c1ccc(C)o1 (stereo not given) > 76.9 µM
Cc1ccc(OCC(O)Cn2c(N3CCOCC3)nc3c2c(=O)[nH]c(=O)n3C)cc1 (stereo not given) > 76.9 µM
Oc1[nH]c2ccccc2c1OCc1ccncc1 > 76.9 µM
CCCn1c(=N)n(CC(O)c2ccco2)c2ccccc21 (stereo not given) > 76.9 µM
O=C1CC(NCc2ccccc2F)C(=O)N1c1ccccc1 (stereo not given) > 76.9 µM
COCCNc1oc(COc2cccc(C)c2)nc1C#N > 76.9 µM
COc1nc(/C(N)=N/O)nc(N2CCCCC2)n1 > 76.9 µM
Cc1occc1C(=O)N1CCN(c2ccc(Cl)c(Cl)c2)CC1 > 76.9 µM
COC(=O)c1ccccc1NC(=O)Cn1cnc2c1c(=O)n(C)c(=O)n2C > 76.9 µM
CCCn1c(C(C)NC(=O)c2ccccc2)nc2ccccc21 (stereo not given) > 76.9 µM
COc1ccccc1NC(=O)N1CCCC1C(=O)NC12CC3CC(CC(C3)C1)C2 (stereo not given) > 76.9 µM
COc1ccc(NC(=O)CSc2nnc(-c3ccccc3C)n2C)cc1 > 76.9 µM
O=c1c2[nH]c3ccccc3c2ncn1CCN1CCCCC1 > 76.9 µM
Cc1ccc(C(=O)NCC2CCCO2)o1 (stereo not given) > 76.9 µM
O=C(Cc1cccs1)N1CCCC(c2nc(-c3ccc(S(=O)(=O)N4CCCC4)cc3)no2)C1 (stereo not given) > 76.9 µM
COc1ccc(CC(=O)Nc2nc3n(n2)C(c2ccccc2)CC(=O)N3)cc1OC (stereo not given) > 76.9 µM
CC1CC(=O)C=C(O)C1C(=O)OC(C)(C)C (stereo not given) > 76.9 µM
CS(=O)(=O)N(CCc1ccccc1)CC(=O)NCc1ccc2c(c1)OCO2 > 76.9 µM
O=C(c1ccncc1)N(Cc1ccccc1)Cc1nc2ccccc2c(=O)[nH]1 > 76.9 µM
COc1ccc(N2CCN(c3oc(-c4ccccc4OC)nc3C#N)CC2)cc1 > 76.9 µM
CCN(C(=O)CN1CCN(c2ccccc2OC)CC1)c1c(N)n(Cc2ccccc2)c(=O)[nH]c1=O > 76.9 µM
CC(=O)NCC(=O)OC(C)C(=O)Nc1ccc(C(C)=O)cc1 (stereo not given) > 76.9 µM
COCc1c(C(=O)OCC(=O)N2c3ccccc3NC(=O)C2(C)C)oc2ccccc12 > 76.9 µM
O=C(NCCCNC(=O)C(F)(F)C(F)F)C(F)(F)C(F)F > 76.9 µM
Cc1cc(C)c(OCC(=O)Nc2nnn(C)n2)c(Br)c1 > 76.9 µM
COc1ccc(NC(=O)N2CCCC2C(=O)Nc2ccc(C)cc2)cc1 (stereo not given) > 76.9 µM
Brc1ccc(-c2nnc3sc(CN4CCc5ccccc5C4)cn23)cc1 > 76.9 µM
C/C(=N\O)C(=O)NCC1CCNCC1 > 76.9 µM
Cn1cccc1C(=O)Nc1nccs1 > 76.9 µM
CCOc1ccc(C(C)=O)cc1Cn1nc(C(=O)O)c2ccccc2c1=O > 76.9 µM
COC(=O)c1ccc(NS(=O)(=O)c2ccc(OC)cc2)cc1 > 76.9 µM
CCC1Oc2ccccc2N(CC(=O)NCCCN2CCC(C)CC2)C1=O (stereo not given) > 76.9 µM
COC(=O)c1nnn(-c2nonc2N)c1CSc1ccc(Cl)cc1 > 76.9 µM
CCn1cc(Br)c(C(=O)N(C)Cc2ccccc2)n1 > 76.9 µM
COc1ccc(-n2c(C)cc(C(=O)Cn3nnc4ccccc4c3=O)c2C)cc1 > 76.9 µM
CC1(C)Cc2cccc(OCC(=O)N3CCN(S(=O)(=O)c4ccc(F)cc4)CC3)c2O1 > 76.9 µM
COc1ccc2ccc(Oc3ncccn3)cc2c1 > 76.9 µM
CC1(C)Oc2ccc(C(=O)N3CCCC3)cc2N(CC(=O)NCc2ccccc2)C1=O > 76.9 µM
CCOC(=O)c1cnn(-c2ccccn2)c1N > 76.9 µM
CCOc1ccc(CCNC(=O)C2CCN(c3nnc(-n4cccc4)s3)CC2)cc1OCC > 76.9 µM
Cc1nn(-c2ccccc2)c2sc(C(=O)O)cc12 > 76.9 µM
O=C(CCc1nc2ccccc2c(=O)[nH]1)OCC(=O)N1CCN(S(=O)(=O)c2ccccc2)CC1 > 76.9 µM
Cc1cc(C)c2c(n1)nn1c(NCCCn3ccnc3)cc(C)nc21 > 76.9 µM
O=C(COc1ccc(S(=O)(=O)N2CCOCC2)cc1)Nc1ccc(Cl)c(C(F)(F)F)c1 > 76.9 µM
CC(C)CC(=O)N=C1SC2CS(=O)(=O)CC2N1CCc1ccccc1 (stereo not given) > 76.9 µM
CC(C)CN(C(=O)COC(=O)C12CC3CC(CC(O)(C3)C1)C2)C1CCS(=O)(=O)C1 (stereo not given) > 76.9 µM
CC(=O)c1c(NCCc2ccccc2)cc(C)oc1=O > 76.9 µM
CCCCCCc1nc2c(=O)[nH]c3ccccc3c2o1 > 76.9 µM
CC(=O)c1cccc(NC(=O)c2ccc(NS(C)(=O)=O)cc2)c1 > 76.9 µM
O=C(NCCCN1CCCC1=O)Nc1ccc(Cl)cc1 > 76.9 µM
